According to paper PMC4336329 (PLoS ONE, 2015):
Among all 310,000 compounds or so, about 14,000 (4.5%) showed an effect of 50% or more. The effect is printed as a negative number. The list shows a part of the results.

target: human ether-à-go-go-related gene (hERG) potassium channel (human, UniProt Q12809); experiment: primary screen, population patch clamp on CHO cells stably expressing hERG
Description: Briefly, Chinese hamster ovary (CHO) cells stably expressing the hERG channel were dislodged from tissue culture flasks and dispensed into PPC plates. […] During the recording, background leak currents were estimated by a 100 ms step to -80 mV from an initial holding potential of -70 mV and subtracted from the subsequent current measurement. The campaign was conducted in two phases using slight differences in recording protocol. In the first phase, the initial voltage pulse used a 100 ms step to -30 mV from a holding potential of -70 mV, a 2 s conditioning step to +25 mV, and a 2 s test step to -30 mV. During the second phase of the screen, the potential during the conditioning step was raised to +45 mV. In both phases of the campaign, a secondary voltage pulse was applied using the same parameters as the second phase initial pulse. The initial and secondary pulses were applied in the absence of compound, and upon application of 1 μM and 10 μM test concentrations. […]
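Note: peak tail current of the secondary pulse compared with the same well before compound.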

human ether-à-go-go-related gene (hERG) potassium channel, sequence (Q12809 whole entry, looked up): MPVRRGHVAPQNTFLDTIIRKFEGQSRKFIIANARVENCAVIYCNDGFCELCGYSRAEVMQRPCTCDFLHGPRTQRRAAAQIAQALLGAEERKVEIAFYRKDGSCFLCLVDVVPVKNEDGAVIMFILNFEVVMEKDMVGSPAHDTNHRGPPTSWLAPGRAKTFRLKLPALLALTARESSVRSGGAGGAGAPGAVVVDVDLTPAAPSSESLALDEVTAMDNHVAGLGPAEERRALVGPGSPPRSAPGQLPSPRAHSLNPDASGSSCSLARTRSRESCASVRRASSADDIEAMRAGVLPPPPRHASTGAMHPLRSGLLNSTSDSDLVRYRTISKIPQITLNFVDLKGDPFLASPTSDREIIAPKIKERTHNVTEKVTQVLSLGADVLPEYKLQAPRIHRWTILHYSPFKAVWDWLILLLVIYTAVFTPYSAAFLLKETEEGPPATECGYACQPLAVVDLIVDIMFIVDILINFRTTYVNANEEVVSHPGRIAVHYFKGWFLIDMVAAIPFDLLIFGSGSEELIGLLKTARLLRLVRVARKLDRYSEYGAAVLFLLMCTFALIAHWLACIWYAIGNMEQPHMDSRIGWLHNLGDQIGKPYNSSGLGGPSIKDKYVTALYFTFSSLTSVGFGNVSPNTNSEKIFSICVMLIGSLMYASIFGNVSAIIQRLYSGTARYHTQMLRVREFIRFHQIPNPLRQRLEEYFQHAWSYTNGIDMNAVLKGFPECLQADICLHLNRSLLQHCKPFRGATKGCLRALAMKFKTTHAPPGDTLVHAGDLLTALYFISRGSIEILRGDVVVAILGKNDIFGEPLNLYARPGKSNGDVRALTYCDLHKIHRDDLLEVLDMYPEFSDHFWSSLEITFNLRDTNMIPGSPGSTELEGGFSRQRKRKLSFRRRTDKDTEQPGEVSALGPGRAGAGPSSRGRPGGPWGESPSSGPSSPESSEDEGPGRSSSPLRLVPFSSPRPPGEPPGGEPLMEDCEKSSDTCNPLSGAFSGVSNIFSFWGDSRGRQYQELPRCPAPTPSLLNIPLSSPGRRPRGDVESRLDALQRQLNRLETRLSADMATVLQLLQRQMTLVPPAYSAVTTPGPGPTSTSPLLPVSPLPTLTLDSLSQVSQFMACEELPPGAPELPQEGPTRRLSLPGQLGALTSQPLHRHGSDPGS

| Compound | hERG current change (%, negative = inhibition) at 10uM |
| --- | --- |
| COC(=O)[C@]1(C)CCC[C@@]2(C)C3CC[C@@]4(C)C[C@]3(CCC21)CC(=O)N4C (some centres unmarked) | 6.59% |
| O=C(O)CC1=C(Nc2ccccc2)C(=O)N(c2ccccc2)C1c1ccc(Cl)cc1 (centres unmarked) | 11.3% |
| Cc1c(Cl)cccc1NC(=O)CCN1CCN(CCO)CC1.Cl | 20.6% |
| CCCCCC(C)NC(=S)NC(=O)c1cc(S(=O)(=O)N2CCOCC2)ccc1C (centres unmarked) | -7.03% |
| COC(=O)c1ccccc1NC(=O)CC(=O)Nc1ccccc1C(=O)OC | 5.39% |
| COC(=O)c1ccc(CN2[C@H](C(=O)OC)C[C@@]3(O)[C@@H](O)[C@@H](O)[C@@H](O)C[C@@H]23)cc1 | 14% |
| Cc1nn(Cc2ccccc2Cl)c(Cl)c1C(=O)NCCc1ccccc1 | 17% |
| Cc1cc(C)nc(NS(=O)(=O)c2ccc(NC(=O)C3(c4ccc([N+](=O)[O-])cc4)CCCC3)cc2)n1 | 3.8% |
| CN1CCCCCC1=NC1=C(C#N)CCCC1 | -6.53% |
| CC(Cn1cnc2ccccc21)C(=O)O (centres unmarked) | 12.3% |
| O=C(Nc1cccc(C(=O)N2CCN(Cc3ccccc3)CC2)c1)c1ccccc1 | -16.7% |
| CCOC(=O)c1c(C)[nH]c(C)c1C(=O)COC(=O)c1ccc(O)cc1 | -1.29% |
| CCN(C(=O)CSc1nc2nc(C)cc(C)n2n1)c1ccccc1 | -8.31% |
| Cc1nn(C)c(C)c1NC(=O)c1ccccc1NC(=O)Nc1ccccc1 | 17.6% |
| CCC(C(=O)NC1CCCCC1)N(C(=O)c1snc(C(N)=O)c1N)c1ccc(OC)cc1OC (centres unmarked) | -69.3% |
| CC(C)NC(=O)NC(=O)CSc1ncc(C(F)(F)F)cc1Cl | -3.58% |
| O=C(COC(=O)/C=C/c1ccc(Cl)cc1Cl)Nc1ccc2c(c1)OCCO2 | 18.5% |
| O=C(c1ccc(Cl)cc1)C1CCN(CC(=O)N2CCCCC2)CC1 | -36.8% |
| COc1cccc(NC(=O)CN2C(=O)NC3(CCCc4ccccc43)C2=O)c1 (centres unmarked) | 3.75% |
| Cn1ncc([N+](=O)[O-])c1C(=O)NCc1ccccc1 | 12.1% |
| Cc1cc(C)cc(N(C(=O)c2csnn2)C(C(=O)NC2CCCCC2)c2ccncc2)c1 (centres unmarked) | 3.83% |
| O=C(Cn1cnc2c(nnn2Cc2ccc(Cl)cc2)c1=O)NCC1CCCO1 (centres unmarked) | -0.834% |

| Compound | hERG current change (%, negative = inhibition) at 10uM |
| --- | --- |
| Cc1ccc(CCNC(=O)C2CCN(S(=O)(=O)N3CCCC3)CC2)cc1 | -7.98% |
| COc1ccc(CCNC(=O)COc2ncnc3ccccc23)cc1 | 1.86% |
| COc1ccc(-c2cc3ccc(OC(C)C(=O)O)cc3oc2=O)cc1 (centres unmarked) | 10.7% |
| Cc1cccc(NC(=O)C2CCN(C(=O)c3ccc(F)cc3)CC2)n1 | -0.274% |
| Cc1c(C)n(Cc2ccccc2)c2ccc(C(=O)OCCN(C)C)cc12.O=C(O)CCC(=O)O | -35.7% |
| COC(=O)[C@@H](Cc1c[nH]c2ccccc12)NC(=O)CNC(=O)c1ccccc1OC | 17.5% |
| COc1cc(/C=C/C(=O)Nc2cc(C(F)(F)F)ccc2Cl)cc(OC)c1OC | 7.9% |
| COc1ccc(CN2CCC(=O)N([C@H](CO)Cc3ccccc3)CC2)cc1OC | 0.538% |
| COc1ccc(C(CNC(=O)c2ccc(NS(=O)(=O)c3ccc4c(c3)OCCO4)cc2)N(C)C)cc1 (centres unmarked) | -7.25% |
| O=C(CN1CCN(Cc2ccc(Cl)cc2)C1=O)NCCCN1CCN(c2ccc(F)cc2)CC1 | -81% |
| CC(OC(=O)c1ccc2ccccc2n1)C(=O)Nc1ccc(N2CCOCC2)cc1 (centres unmarked) | -8.35% |
| O=[N+]([O-])c1ccc(-c2ccc(C=Nc3cccc4ccccc34)o2)cc1 | 12.1% |
| C/C(=N/Nc1ccccc1C(=O)O)c1cccs1 | 18.6% |
| CSc1nnc(-c2ccc(S(=O)(=O)N3CCOCC3)cc2)n1CC1CCCO1 (centres unmarked) | -2.43% |
| O=C(Nc1cnc2ccccc2c1)c1ccco1 | 8.78% |
| C(=N\c1nc2ccccc2n1CCN1CCOCC1)/c1cccs1 | -20.7% |
| Cc1nc2c(c(=O)n1CCC1=CCCCC1)c1nc3ccccc3nc1n2/N=C/c1ccco1 | -22% |
| Cc1cccc(NC(=O)Nc2ccncc2)c1 | 17.4% |
| Cc1cc(=O)cc(C)n1-c1ccc(Cl)cc1 | 15% |
| CCN(CC)c1ccc(NC(=O)c2ccco2)c(C)c1 | -4.43% |
| Clc1ccccc1Cn1nnc2c(NCC3CC3)ncnc21 | -10.9% |
| CC(C)(C)C(=O)Cn1c(NCCCl)nc2ccccc21.Cl | -0.838% |

| Compound | hERG current change (%, negative = inhibition) at 10uM |
| --- | --- |
| CC(C)c1ccccc1NC(=S)NN(Cc1ccccc1)c1ccccc1 | 8.79% |
| Cc1cc(Br)ccc1N=C1NC(=O)CS1 | 1.03% |
| O=C(c1nc2ccccn2c1CNCCCn1nnc2ccccc21)N1CCOCC1 | -19.4% |
| Cc1c(O)ccc2c3c(c(=O)oc12)CCCC3 | -3.03% |
| COc1ccc(-c2ccc(C(C)=O)cc2)cc1[C@H]1[C@H]2C=CC[C@@H](C)[C@@H]2C(=O)N1Cc1ccccc1 | 0.193% |
| O=[N+]([O-])c1ccc(Cc2ccccn2)c([N+](=O)[O-])c1 | -50.2% |
| O=C(CC1Oc2ccccc2NC1=O)NCc1ccccc1 (centres unmarked) | -3.55% |
| COc1ccc(C)cc1NC(=O)COC(=O)Cc1ccc(-c2ccccc2)cc1 | -2.73% |
| C=CCNC(=S)NNC(=O)c1cccn(Cc2cccc(Cl)c2)c1=O | -8.26% |
| CC1=C(C#N)C(=O)NC(=O)/C1=C/c1ccc(-c2ccc(S(N)(=O)=O)cc2)o1 | 14.9% |
| CC1CCCCC12NC(=O)N(CC(=O)Nc1ccccc1-c1ccccc1)C2=O (centres unmarked) | 0.994% |
| O=C(Cn1cc(C(F)(F)F)ccc1=O)NC1CCCC1 | 6.25% |
| Cn1c(C(=O)NCCCN2CCc3ccccc3C2)cc2c(=O)n(C)c3ccccc3c21 | -33.7% |
| CCOc1ncccc1C(=O)Nc1ccc(F)c(Cl)c1 | 24.1% |
| Cc1csc(NC(=O)CSc2nc(=O)[nH]c3c2CCCC3)n1 | 2.43% |
| Cc1nnc(-c2cccc(Br)c2)c2cn(-c3cccc(Br)c3)nc12 | 0.9% |
| Cc1cc(NC(=O)COC(=O)CCS(=O)(=O)c2ccc(Cl)cc2)no1 | 12.1% |
| CC(C)(C)NC(=O)C(c1ccco1)N(C(=O)Cn1nnc(-c2ccc(F)cc2)n1)c1ccccc1F (centres unmarked) | -6.11% |
| COc1ccccc1NC(=O)Cn1nc(Cc2cccnc2)c2ccccc2c1=O | -15.7% |
| Cc1c(C)n(Cc2ccccc2)c2ccc(C(=O)OCCCN(C)C)cc12 | -1.91% |
| C#CCSc1nnnn1-c1ccc(OCC)cc1 | -14.2% |
| C=CCN(c1ccc(Cl)cc1)S(=O)(=O)c1cccc(C(=O)OCC(=O)N(C)C)c1 | -27.7% |

| Compound | hERG current change (%, negative = inhibition) at 10uM |
| --- | --- |
| COc1cccc(Sc2nc(-c3ccccc3)ncc2S(C)(=O)=O)c1 | 13.1% |
| CC(C)N1CCC(NC(=O)Nc2ccccc2)CC1 | 4.73% |
| CCCCn1c(N)c(N(Cc2ccccc2OC)C(=O)C(C)C)c(=O)[nH]c1=O | 4.7% |
| COc1ccc(C(=O)NN2C(=S)N(c3ccc(OC)cc3)C(=O)C2CC(N)=O)cc1 (centres unmarked) | 15.3% |
| CCCCN(CC)CCNC(=O)c1cn(CCOC)c(=O)c2c1c1ccccc1n2C | -24.7% |
| Cc1ccccc1NC(=O)CN1C(=O)NC(C)(CCc2ccccc2)C1=O (centres unmarked) | 22.2% |
| C=C(C)C(=O)Nc1cccc(C2=NOC3(C2)C[C@H](C(N)=O)N(C(=O)C(c2ccccc2)c2ccccc2)C3)c1 (some centres unmarked) | -24.6% |
| O=C(NCc1cccc(F)c1F)C1CCC(=O)N(C2CC2)C1 (centres unmarked) | 15.1% |
| CCOC(=O)c1c(-c2ccc(C)cc2C)csc1NC(=O)CSc1nnnn1C | -8.6% |
| CS(=O)(=O)N1CCN(c2ccc(Cl)cc2[N+](=O)[O-])CC1 | -13.4% |
| CCSc1nc(N)nc(-c2cccs2)c1C#N | 0.736% |
| O=C(Nc1nncs1)C(Sc1ccccc1)c1ccccc1 (centres unmarked) | -8.99% |
| CN(C)CCN(CC1CCCN(Cc2ccccc2F)C1)C(=O)Cc1c(F)cccc1F (centres unmarked) | -9.05% |
| COC(=O)c1cccnc1-n1c(=O)c2cccnc2n(Cc2ccc([N+](=O)[O-])cc2)c1=O | -30.5% |
| O=C(NCc1ccc2c(c1)OCO2)c1cccc(C(=O)NCc2ccc3c(c2)OCO3)c1 | 2.14% |
| Cc1ccc(Cl)cc1-c1ccc(C=Nc2ccc(N3CCOCC3)cc2)o1 | 5.67% |
| CCCCOC(=O)C1=C(C)NC(=O)NC1c1ccccc1 (centres unmarked) | 6.12% |
| O=C(NC1CCCCC1)c1cccs1 | 2.94% |
| CCn1c(C(=O)NCc2cccnc2)cc2sc(Cl)cc21 | -57.2% |
| CN(C)C=O.COc1ccc(/C=C/c2nc3ccccc3c(=O)n2-c2cccc(C(=O)O)c2)cc1 | 4.31% |
